{
  "source": "PubChem BioAssay AID624418",
  "about": "(National Center for Advancing Translational Sciences (NCATS), 2012)",
  "note": "The campaign covered roughly 410,000 compounds. About 530 (0.13%) were called active. The shares of active, inactive and inconclusive entries below differ from those in the screen. Calls follow the shape of the dose curve; as a rule, active = well fitted inhibition curve with a large enough effect; inconclusive = small, poorly fitted or top-dose-only effect, or another doubt; inactive = no such curve, though single readings can be large or run the other way. Potencies beside an inconclusive call are fits to weak or partial responses and may not hold up. % is scaled to controls: 0 for no effect and ±100 for the full control effect; potency is read from the fitted curve at half-maximal effect.",
  "data": [
    {"assay": "qHTS of GLP-1 Receptor Inverse Agonists: Cytotox Screen", "conditions": "HEK293 cAMP-luciferase reporter cells, luminescence, 24 h; activity change, negative = inhibition: at 38.3 µM (top of the series)", "summary_of_the_method": "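Here, cytotoxicity is scored as loss of luminescence. The MLSMR collection was tested on cells seeded in medium containing 10% Nu serum, with a 24 hr compound exposure preceded by 12 hours of culture.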", "values": [
      {"smiles": "COc1ccc(C2C(C#N)=C(N)Oc3cc(C)[nH]c(=O)c32)cc1OC", "note": "(stereo unspecified)", "activity change, negative = inhibition": "inactive: -2.14%"},
      {"smiles": "COc1cccc(-c2cn3ncsc3n2)c1", "activity change, negative = inhibition": "inactive: 1.35%"},
      {"smiles": "C/C(CC(=O)Nc1ccc(N(C)C)cc1)=N\\NC(=O)c1ccc(Cl)cc1Cl", "activity change, negative = inhibition": "inactive: 15.9%"},
      {"smiles": "Cc1cc(C)n(-c2nc(C)c(C)c(=O)n2CC(=O)Nc2ccc(OC(F)(F)F)cc2)n1", "activity change, negative = inhibition": "inactive: 0.176%"},
      {"smiles": "Cc1nc(N2CCN(C(=O)c3ccco3)CC2)c2c3c(sc2n1)CCCC3", "Potency": "inconclusive: 20 µM [inhibitor, single point]"},
      {"smiles": "CSC1=NC=C(C#N)C2=NC(c3c(Cl)cccc3Cl)NN12", "note": "(stereo unspecified)", "activity change, negative = inhibition": "inactive: 4.6%"},
      {"smiles": "CCNC(=S)NN=C1CCC(C(C)(C)C)CC1", "note": "(stereo unspecified)", "Potency": "inconclusive: 10 µM [inhibitor, partial curve]"},
      {"smiles": "CCOc1cc(NC(=S)NCC2CCCO2)c(OCC)cc1NC(=O)c1cccc(F)c1", "note": "(stereo unspecified)", "Potency": "inconclusive: 28.2 µM [inhibitor, single point]"},
      {"smiles": "COc1ccccc1C(=O)Nc1ccc(C(=O)OCc2cc(=O)n3nc(C)sc3n2)cc1", "activity change, negative = inhibition": "inactive: 4.18%"},
      {"smiles": "Cc1ccc(CNC(=O)CNS(=O)(=O)c2ccc(Br)s2)cc1", "Potency": "inconclusive: 28.2 µM [inhibitor, single point]"},
      {"smiles": "CCCOc1ccc(N)cc1N", "Potency": "inconclusive: 17.8 µM [inhibitor, single point]"},
      {"smiles": "O[C@H]1CN(Cc2cccs2)[C@@H](c2ccccc2)C[C@@H]1n1cc(-c2ccc(F)cc2)nn1", "activity change, negative = inhibition": "inactive: -10.6%"},
      {"smiles": "CN(CC(=O)Nc1cccc(F)c1)C(=O)c1cccc(S(=O)(=O)N2CC3(C)CC2CC(C)(C)C3)c1", "note": "(stereo unspecified)", "Potency": "inconclusive: 14.1 µM [inhibitor, single point]"},
      {"smiles": "CC1CCN(c2ccc(C(=O)NCCc3ccccc3)cn2)CC1", "activity change, negative = inhibition": "inactive: 14.1%"},
      {"smiles": "COc1coc(C(O)CN)cc1=O", "note": "(stereo unspecified)", "activity change, negative = inhibition": "inactive: -7.05%"},
      {"smiles": "COc1cccc2oc3cc(C#Cc4ccccn4)ccc3c(=O)c12", "activity change, negative = inhibition": "inactive: 2.85%"},
      {"smiles": "CC(=O)NCCNC(=O)c1ccc(CSc2ccc(Cl)cc2)cc1", "activity change, negative = inhibition": "inactive: -2.48%"},
      {"smiles": "CCc1cccc(C)c1NC(=O)CN1CCN(Cc2ccccc2Cl)S1(=O)=O", "activity change, negative = inhibition": "inactive: -8.79%"},
      {"smiles": "CN(C)c1cc(N/N=C\\c2ccccc2)nc(N(C)C)n1", "Potency": "inconclusive: 17.8 µM [inhibitor, single point]"},
      {"smiles": "CCCCOc1cccc(C(=O)NC(=S)Nc2cccc(C(F)(F)F)c2)c1", "Potency": "inconclusive: 11.2 µM [inhibitor, partial curve, poor fit]"},
      {"smiles": "Cc1ccc(-c2nc3c4ccccc4ccn3c2CN2CCCCC2)cc1", "Potency": "inconclusive: 31.6 µM [inhibitor, partial curve, poor fit]"},
      {"smiles": "CC(C)=NOc1cc(NC(=O)CCl)cc([N+](=O)[O-])c1", "Potency": "inconclusive: 12.6 µM [inhibitor, single point]"},
      {"smiles": "O=S(=O)(CCSc1nc2ccccc2o1)c1nc2ccccc2s1", "Potency": "inconclusive: 10 µM [inhibitor, partial curve]"},
      {"smiles": "CCOc1ccc(OCCC(=O)OCC(=O)N2CCN(S(=O)(=O)c3ccc(Cl)cc3)CC2)cc1", "Potency": "inconclusive: 22.4 µM [inhibitor, single point]"},
      {"smiles": "COc1ccc(CNCc2c(C(=O)O)c(C)n(Cc3ccccc3C)c2C)cc1OC", "activity change, negative = inhibition": "inactive: -10.2%"},
      {"smiles": "COc1ccc(-c2cc3cc4c(cc3cn2)OCO4)cc1", "Potency": "inconclusive: 0.501 µM [inhibitor, full curve, poor fit]"},
      {"smiles": "CCOc1ccc(NC(=O)CSc2ncc(S(=O)(=O)c3ccc(F)c(C)c3)c(=O)[nH]2)cc1", "activity change, negative = inhibition": "inactive: 0.188%"},
      {"smiles": "COc1ccc(/C=C2/SC(=O)N(NS(=O)(=O)c3ccccc3)C2=S)cc1OC", "Potency": "inconclusive: 10 µM [inhibitor, partial curve, poor fit]"},
      {"smiles": "CCCCN(CC)CCNC(=S)Nc1ccc2nc(N3CCN(C)CC3)cc(C)c2c1", "Potency": "inconclusive: 2.51 µM [inhibitor, partial curve, poor fit]"},
      {"smiles": "COc1ccc(NS(=O)(=O)c2cc(NC(=O)c3cccs3)ccc2N2CCCC2)cc1", "Potency": "inconclusive: 3.98 µM [inhibitor, partial curve]"},
      {"smiles": "CCN(CC)CCNC(=O)c1ccc(NC(=O)c2ccc(Cl)c(S(=O)(=O)N3CCCCCC3)c2)cc1", "Potency": "inconclusive: 28.2 µM [inhibitor, single point]"},
      {"smiles": "O=[N+]([O-])c1nn(-c2ccc(Cl)cc2)n(O)c1=NCc1cccnc1", "Potency": "inconclusive: 10 µM [inhibitor, single point]"},
      {"smiles": "CCCCOc1ccc(C(=O)NCC(=O)N2CCN(C(=O)c3ccco3)CC2)cc1", "Potency": "inconclusive: 20 µM [inhibitor, single point]"},
      {"smiles": "O=C(COc1ccccc1)NC1CCS(=O)(=O)C1", "note": "(stereo unspecified)", "activity change, negative = inhibition": "inactive: 8.81%"},
      {"smiles": "CCc1ccccc1NC(=O)CN(c1ccccc1OC)S(=O)(=O)c1ccc(C)cc1", "activity change, negative = inhibition": "inactive: 4.13%"},
      {"smiles": "CCN(C[C@H]1N[C@@](CC)(C(=O)OC)[C@H]2C(=O)N(Cc3ccccc3)C(=O)[C@@H]12)C(=O)Nc1ccc(C(F)(F)F)cc1", "activity change, negative = inhibition": "inactive: 8.12%"},
      {"smiles": "COc1ccc(NS(=O)(=O)c2cccc(C(=O)NCC(c3ccc(OC)cc3)N3CCOCC3)c2)cc1", "note": "(stereo unspecified)", "Potency": "inconclusive: 28.2 µM [inhibitor, single point]"},
      {"smiles": "CCCCC1=NN(C(=O)c2ccco2)C(O)(C(F)(F)F)C1", "note": "(stereo unspecified)", "Potency": "inconclusive: 0.708 µM [inhibitor, full curve]"},
      {"smiles": "Cc1ccccc1C(=O)Nc1cccc(NC(=O)c2ccc(C(C)(C)C)cc2)c1", "activity change, negative = inhibition": "inactive: -15.4%"},
      {"smiles": "CC(C)c1nc(=S)c2ccccc2[nH]1", "Potency": "inconclusive: 28.2 µM [inhibitor, single point]"},
      {"smiles": "CCc1ccc(Nc2c([N+](=O)[O-])c(=O)oc3ccccc23)cc1", "Potency": "inconclusive: 10 µM [inhibitor, single point]"},
      {"smiles": "CCc1ccc(NC(=O)CSc2ccc(-c3sc(-c4ccccc4)nc3C)nn2)cc1", "activity change, negative = inhibition": "inactive: 3.45%"},
      {"smiles": "CCOc1cc(/C=N/NC(=O)c2cccc([N+](=O)[O-])c2)ccc1OS(=O)(=O)c1ccccc1", "activity change, negative = inhibition": "inactive: -7.53%"},
      {"smiles": "CC(NC(=O)c1cc(S(=O)(=O)N2CCOCC2)ccc1F)c1ccc(-n2ccnc2)cc1", "note": "(stereo unspecified)", "activity change, negative = inhibition": "inactive: 1.84%"},
      {"smiles": "Cc1ccccc1Cn1c(CN2CCc3ccccc3C2)nc2c1c(=O)n(C)c(=O)n2C", "Potency": "inconclusive: 10 µM [inhibitor, single point]"},
      {"smiles": "CCN(Cc1ccccc1)c1nc2c(S(=O)(=O)c3ccccc3)nnn2c2ccc(Cl)cc12", "activity change, negative = inhibition": "inactive: 3.05%"}
    ]}
  ]
}
